# According to article PMC4336329 (PLoS ONE, 2015):
# The campaign covered roughly 310,000 compounds. About 14,000 (4.5%) showed an effect of 50% or more. The effect is printed as a negative number. The list shows a part of the results.
# Target: human ether-à-go-go-related gene (hERG) potassium channel (human, UniProt Q12809)
# Experiment: primary screen, population patch clamp on CHO cells stably expressing hERG
# 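Note: peak tail current of the secondary pulse compared with the same well before compound.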
# human ether-à-go-go-related gene (hERG) potassium channel, sequence (Q12809 whole entry, looked up): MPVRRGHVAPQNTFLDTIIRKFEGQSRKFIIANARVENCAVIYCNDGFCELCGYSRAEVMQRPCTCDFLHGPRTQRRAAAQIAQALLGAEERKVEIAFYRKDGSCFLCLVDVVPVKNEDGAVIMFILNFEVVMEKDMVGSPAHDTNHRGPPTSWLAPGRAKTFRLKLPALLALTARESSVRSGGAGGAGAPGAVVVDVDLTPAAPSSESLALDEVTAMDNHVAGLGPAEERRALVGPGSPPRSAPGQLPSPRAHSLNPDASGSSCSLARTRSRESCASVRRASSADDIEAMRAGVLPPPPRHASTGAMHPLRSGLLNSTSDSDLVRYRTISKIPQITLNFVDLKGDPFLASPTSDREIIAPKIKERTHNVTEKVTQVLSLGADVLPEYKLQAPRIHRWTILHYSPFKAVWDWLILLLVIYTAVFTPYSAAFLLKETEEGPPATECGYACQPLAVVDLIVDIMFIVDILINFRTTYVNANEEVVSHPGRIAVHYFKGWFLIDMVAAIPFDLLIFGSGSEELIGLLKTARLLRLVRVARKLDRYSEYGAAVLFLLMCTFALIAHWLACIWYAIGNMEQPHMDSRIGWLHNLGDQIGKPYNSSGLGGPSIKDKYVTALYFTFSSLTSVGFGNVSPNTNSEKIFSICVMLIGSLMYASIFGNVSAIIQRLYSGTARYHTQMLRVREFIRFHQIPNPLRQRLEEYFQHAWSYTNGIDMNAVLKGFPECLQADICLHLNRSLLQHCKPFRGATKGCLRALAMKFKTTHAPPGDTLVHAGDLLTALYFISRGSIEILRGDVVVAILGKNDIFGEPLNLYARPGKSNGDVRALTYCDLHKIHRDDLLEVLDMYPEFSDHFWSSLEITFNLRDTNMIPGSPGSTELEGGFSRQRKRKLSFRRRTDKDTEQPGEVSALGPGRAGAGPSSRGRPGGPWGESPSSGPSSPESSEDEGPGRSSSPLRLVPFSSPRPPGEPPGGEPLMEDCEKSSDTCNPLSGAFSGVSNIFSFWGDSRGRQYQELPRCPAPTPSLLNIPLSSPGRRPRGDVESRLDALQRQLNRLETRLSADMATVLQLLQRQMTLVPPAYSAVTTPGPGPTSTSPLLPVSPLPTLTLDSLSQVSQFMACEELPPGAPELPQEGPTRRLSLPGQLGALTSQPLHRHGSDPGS
row,Structure (SMILES),"hERG current change (%, negative = inhibition) at 10uM"
1,Cc1cc(NC(c2ccc(Cl)cc2)c2ccc3cccnc3c2O)no1 (stereo not shown),-6.4%
2,CCN(CC)CCNC(=O)c1sc2nc(-c3ccccc3)cn2c1C,-67.4%
3,COc1cc(-c2nnc(SC(C)C(=O)Nc3c(C)n(C)n(-c4ccccc4)c3=O)o2)cc(OC)c1OC (stereo not shown),-7.75%
4,Cc1ncc(CN2CCCC(C(=O)c3ccc(C(C)(C)C)cc3)C2)s1 (stereo not shown),-72.8%
5,C=CCNC(=S)Nc1ccccc1,-8.73%
6,O=C(CCOc1ccccc1F)N1CCN(c2ccccc2O)CC1,-6.27%
7,NC(=O)C1CCN(CC(=O)Nc2cc(Cl)ccc2Oc2ccccc2)CC1,-67%
8,O=C1OCCC1Sc1nnc(-c2ccc3c(c2)OCO3)o1 (stereo not shown),12.5%
9,COCCN(C(=O)Nc1ccc(OC)cc1OC)C1CCN(C(C)=O)CC1,7.58%
10,COc1cccc(CNC(=O)CCCSc2ccccc2)c1,-10.3%
11,O=C(Nc1ccc(F)cc1)N1CCC(c2nc3c(nnn3Cc3cccc(Cl)c3)c(=O)[nH]2)CC1,-4.28%
12,CC(C)c1ccc(N(C(=O)c2ccc3c(c2)OCO3)C2C=CS(=O)(=O)C2)cc1 (stereo not shown),-66.2%
13,COc1ccc(S(=O)(=O)N(C)CC(=O)N2CCN(C)CC2)cc1Cl,7.62%
14,O=C(Nc1c2c(nn1-c1ccccc1)CS(=O)(=O)C2)c1ccco1,-9.21%
15,O=C(Nc1ccc(Cl)cc1F)c1cc(S(=O)(=O)N2CCCCC2)ccc1F,-0.146%
16,O=C(Cn1cnc2sc3c(c2c1=O)CCCC3)NCCC(=O)N1CCC2(CC1)OCCO2,-6.96%
17,Cc1ccc(NC(=O)C2CCCN2S(=O)(=O)c2ccc(-c3ccc(=O)[nH]n3)s2)c(C)c1 (stereo not shown),-15.4%
18,Cc1c(CCC(=O)N[C@@H](CC(C)C)C(=O)O)c(=O)oc2c(C)c3oc4c(c3cc12)CCCC4,-8.19%
19,COc1ccc(-c2cc(=O)[nH]c(=S)[nH]2)cc1,13.5%
20,Cc1ccccc1NC(=O)c1cccc(C(=O)Nc2ccccc2C)n1,6.81%
21,CC(=O)c1ccc(OC(C)C)c(Cc2c(O)nc(N)[nH]c2=O)c1,-4.54%
22,Cc1c(C(=O)N2CCCCC2)c(S(=O)(=O)N2CCC(C)CC2)c(C)n1C,3.48%

row,Structure (SMILES),"hERG current change (%, negative = inhibition) at 10uM"
1,COc1ccccc1N=c1oc2c(OC)cccc2cc1C(=O)NCc1ccco1,-1.4%
2,Cc1ccc(C)c(N2CCN(S(=O)(=O)c3ccc4c(c3)CC(=O)N4C)CC2)c1,-19.4%
3,O=C(Nc1ccccc1)C(=O)Nc1ccc2c(c1)N(C(=O)C1CC1)CCC2,-5.26%
4,CCN(CC)S(=O)(=O)c1ccc(Cc2ncc(C(F)(F)F)cc2Cl)s1,-7.16%
5,O=C(CSCc1ccc(F)cc1)NCc1ccco1,14%
6,CCCCCCC(C)n1[nH]c(=O)c2c(C)cc(C)nc21 (stereo not shown),-10.9%
7,CC(C)Oc1ccc(C(CC(=O)NCCCN(C)C)c2ccc(F)cc2)cc1 (stereo not shown),-57.1%
8,CCC(=O)Nc1ccc(C(=O)N/N=C/c2cc(Br)c(OC)cc2OC)cc1,12.9%
9,CCOc1ccc2ccc(OCC)c(/C=N/n3cnnc3)c2c1,-14.8%
10,N#Cc1c(NC(=O)Cn2c(=O)oc3ccccc32)oc(-c2ccccc2)c1-c1ccccc1,23.3%
11,COCCn1c(NCc2ccco2)nc2c1c(=O)[nH]c(=O)n2C,15.3%
12,O=C(NCC1CCCO1)C(=O)NCC(c1ccco1)N1CCN(c2ccccc2F)CC1 (stereo not shown),-2.95%
13,CC1(C)CC2CC(C)(CN2S(=O)(=O)c2ccc(N)cc2)C1 (stereo not shown),-17.2%
14,Cc1cc(C)n2nc(SCCOc3ccccc3F)nc2n1,-22.7%
15,O=C(O[C@H]1[C@H](Cc2ccccc2)NS(=O)(=O)[C@H]2C[C@@H]3C=C[C@]12O3)c1ccc([N+](=O)[O-])cc1,0.543%
16,COc1ccc(-c2noc(CN(C)CCC3CCCCO3)n2)cc1 (stereo not shown),5.66%
17,O=C(O)Cc1c[nH]c2ccccc12,16.1%
18,COCCOC(=O)C1=C(C)NC(=O)NC1c1c(Cl)nc2c(C)cccn2c1=O (stereo not shown),19.4%
19,Cc1ccc2c(CC(=O)Nc3nc(C)cs3)coc2c1,1.85%
20,O=C(Nc1ccc(Cl)cc1)NC1CCCCNC1=O (stereo not shown),-5.3%
21,COc1ccc2nc(NC(=O)c3ccccc3-c3ccccc3C(=O)O)sc2c1,21.9%
22,O=C(c1cccc(COc2cccc3ccccc23)c1)N1CCCC1,-4.59%

row,Structure (SMILES),"hERG current change (%, negative = inhibition) at 10uM"
1,COc1cccc(C(=O)NCc2ccc(-c3nc4ccccc4s3)cc2)c1,21.7%
2,COc1ccc(C2/C(=C(/O)c3ccc4c(c3)CC(C)O4)C(=O)C(=O)N2CCCn2ccnc2)cc1 (stereo not shown),15.5%
3,O=c1c2ccccc2cnn1Cc1n[nH]c(=S)n1-c1ccc(F)c(Cl)c1,14.4%
4,CCN(C(=O)CSc1nnc(-c2ccc(OC(F)F)cc2)n1N)C1CCS(=O)(=O)C1 (stereo not shown),-43.3%
5,O=C(NCc1ccco1)C1CCC(N2C(=O)c3ccccc3C2=O)CC1 (stereo not shown),1.59%
6,CSc1ccc(C(=O)C2CCCN(C(=O)CN3CCOC3=O)C2)cc1 (stereo not shown),4.06%
7,COc1ccc(-n2nc3c(c2NC(=O)c2ccco2)CS(=O)(=O)C3)cc1,-9.71%
8,O=C(CC1C(=O)NCCN1C(=O)Nc1ccccc1)Nc1cc(Cl)cc(Cl)c1 (stereo not shown),7.5%
9,Cn1cnnc1SCC(=O)NCc1ccccc1,18.8%
10,C=C(CC)C(=O)c1ccc(OCC(=O)O)c(Cl)c1Cl,15.4%
11,CNC(=O)Cn1nc(-c2ccc(C)c(S(=O)(=O)N(C)C)c2)c2ccccc2c1=O,-9.45%
12,Cc1nc(-c2cn[nH]c2-c2ccc(O)cc2O)cs1,16%
13,CCOC(=O)c1cnc2c(CC)cccc2c1NCCN1CCOCC1,-44.4%
14,Cc1nn(-c2cc(N3CCCCC3)ccc2[N+](=O)[O-])c(=O)c2ccccc12,-15.1%
15,CSc1ccccc1OCc1cc(C(=O)NCCN2CCCC(O)C2)no1 (stereo not shown),-15.1%
16,COc1cccc(NC(=O)CN(C)CC(=O)Nc2ccc(Cl)cc2[N+](=O)[O-])c1,-17.5%
17,Brc1cccc(Cn2c(-c3cncs3)nc3ccccc32)c1,-10.5%
18,CCOC(=O)c1ccc(NC(=O)c2cc(S(=O)(=O)N3CCOCC3)ccc2O)cc1,-10.3%
19,CCOC(=O)N1CCC(Nc2c(NCCCN(C)Cc3ccccc3)c(=O)c2=O)CC1,8.68%
20,Cc1cc(C)c2c(-c3ccc(F)cc3)c(C#N)c(=O)n(C)c2n1,11.3%
21,Cc1ccc(OCc2n[nH]c(=S)n2-c2ccc(Br)cc2)cc1,21.1%
22,COc1ccc(/C=C(/NC(=O)c2ccccc2)C(=O)NC(Cc2c[nH]c3ccccc23)C(=O)O)cc1 (stereo not shown),14.5%

row,Structure (SMILES),"hERG current change (%, negative = inhibition) at 10uM"
1,CS(=O)(=O)N1CCCC(C(=O)Nc2ccc(Br)cc2F)C1 (stereo not shown),4.46%
2,N#Cc1cccc(NC(=O)COC(=O)Cn2nc(-c3ccccc3)oc2=O)c1,0.738%
3,COC(=O)C1=C(C(=O)OC)[C@@H]2N(C)c3ccccc3[C@@]23C[C@@H](C(=O)OC)N=C3N1,-2.81%
4,COc1cc(-c2cc(C(=O)Nc3ccc(O)cc3)c3ccccc3n2)cc(OC)c1OC,-25.8%
5,CCCC(C)C(=O)Nc1ccc(F)c(Cl)c1 (stereo not shown),-11.3%
6,COc1ccnc(NCc2cccc(C(F)(F)F)c2)c1C#N,3.7%
7,COc1cc(NC(=O)CSc2nnc(Cn3nnc4ccccc43)n2C)cc(OC)c1,-8.71%
8,O=C(CNS(=O)(=O)c1ccccc1)Nc1ccc(F)cc1F,7.81%
9,COc1ccc(CC(=O)OCc2nnc(C3COc4ccccc4O3)o2)cc1OC (stereo not shown),3.23%
10,Cc1[nH]c2ccccc2c1C(=O)C(=O)NCCOc1ccccc1,1.04%
11,Cc1cccc(S(=O)(=O)NCCNS(=O)(=O)c2cccc(C)c2)c1,15.2%
12,Cc1ccc(C)c(/C=N/Nc2nc3ccccc3c(=O)n2O)c1,-0.538%
13,COc1cccc(NC(=O)CCS(=O)(=O)c2ccc(Br)cc2)c1,-10.6%
14,O=C(CSc1nc2ccccc2c(=O)n1Cc1ccco1)NCc1ccccc1,-29.3%
15,COc1ccc(-c2nsc3c(N4CCN(C(=O)c5ccco5)CC4)ncnc23)cc1,10.9%
16,COc1cc(Br)cc(-c2nc3c(c(=O)[nH]c(=O)n3Cc3ccccc3)n2C)c1O,-4.1%
17,CCN(CC)c1ccc2cc(C(N)=O)/c(=N\NC(=O)c3ccncc3)oc2c1,-16.9%
18,Nc1nnc(CCS(=O)(=O)c2ccc(Br)cc2)s1,21.1%
19,CC(=O)Oc1c(C)c(C)c2c(c1C)CC[C@@](C)(CCC[C@H](C)CCC[C@H](C)CCCC(C)C)O2,7.93%
